# From the supplement of paper PMC8728848
# The list shows a part of the results.
# B1: PRKCE (Homo sapiens), Q02156 (protein)
# chain: MVVFNGLLKIKICEAVSLKPTAWSLRHAVGPRPQTFLLDPYIALNVDDSRIGQTATKQKTNSPAWHDEFVTDVCNGRKIELAVFHDAPIGYDDFVANCTIQFEELLQNGSRHFEDWIDLEPEGRVYVIIDLSGSSGEAPKDNEERVFRERMRPRKRQGAVRRRVHQVNGHKFMATYLRQPTYCSHCRDFIWGVIGKQGYQCQVCTCVVHKRCHELIITKCAGLKKQETPDQVGSQRFSVNMPHKFGIHNYKVPTFCDHCGSLLWGLLRQGLQCKVCKMNVHRRCETNVAPNCGVDARGIAKVLADLGVTPDKITNSGQRRKKLIAGAESPQPASGSSPSEEDRSKSAPTSPCDQEIKELENNIRKALSFDNRGEEHRAASSPDGQLMSPGENGEVRQGQAKRLGLDEFNFIKVLGKGSFGKVMLAELKGKDEVYAVKVLKKDVILQDDDVDCTMTEKRILALARKHPYLTQLYCCFQTKDRLFFVMEYVNGGDLMFQIQRSRKFDEPRSRFYAAEVTSALMFLHQHGVIYRDLKLDNILLDAEGHCKLADFGMCKEGILNGVTTTTFCGTPDYIAPEILQELEYGPSVDWWALGVLMYEMMAGQPPFEADNEDDLFESILHDDVLYPVWLSKEAVSILKAFMTKNPHKRLGCVASQNGEDAIKQHPFFKEIDWVLLEQKKIKPPFKPRIKTKRDVNNFDQDFTREEPVLTLVDEAIVKQINQEEFKGFSYFGEDLMP
# Columns and labels:
# Test in all cases: glycan array binding signal (z-score within array); higher = stronger binding
# Details in all cases: glycan notation: IUPAC condensed, linker removed
# [1] = target: Gal(b1-4)GlcNAc(b1-2)[Gal(b1-4)GlcNAc(b1-4)]Man(a1-3)[GlcNAc(b1-4)][Gal(b1-4)GlcNAc(b1-2)Man(a1-6)]Man(b1-4)GlcNAc(b1-4)GlcNAc
# How it was run: (§1)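 Arrays were curated from the Consortium for Functional Glycomics database, 3228 in total, and kept only where the protein sequence was available. Binding is expressed as a within-array Z-score. This score was averaged across arrays of the same protein sequence at different concentrations or buffers and across linkers, and negative values can be read as non-binding.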
# [2] = target: Gal(b1-4)GlcNAc(b1-2)[Gal(b1-4)GlcNAc(b1-4)]Man(a1-3)[GlcNAc(b1-4)][Gal(b1-4)GlcNAc(b1-2)[Gal(b1-4)GlcNAc(b1-6)]Man(a1-6)]Man(b1-4)GlcNAc(b1-4)GlcNAc
# How it was run: as §1
# [3] = target: Gal(b1-4)GlcNAc(b1-2)[Gal(b1-4)GlcNAc(b1-4)]Man(a1-3)[GlcNAc(b1-4)][Gal(b1-4)GlcNAc(b1-2)[Gal(b1-4)GlcNAc(b1-6)]Man(a1-6)]Man(b1-4)GlcNAc(b1-4)[Fuc(a1-6)]GlcNAc
# How it was run: as §1
# [4] = target: Gal(b1-4)GlcNAc(b1-2)[Gal(b1-4)GlcNAc(b1-6)]Man(a1-6)[Gal(b1-4)GlcNAc(b1-2)Man(a1-3)]Man(b1-4)GlcNAc(b1-4)GlcNAc
# How it was run: as §1
# [5] = target: Gal(b1-4)GlcNAc(b1-2)[Gal(b1-4)GlcNAc(b1-6)]Man(a1-6)[Gal(b1-4)GlcNAc(b1-2)Man(a1-3)]Man(b1-4)GlcNAc(b1-4)[Fuc(a1-6)]GlcNAc
# How it was run: as §1
# [6] = target: Gal(b1-4)GlcNAc(b1-2)[Gal(b1-4)GlcNAc(b1-6)]Man(a1-6)[GlcNAc(b1-4)][Gal(b1-4)GlcNAc(b1-2)Man(a1-3)]Man(b1-4)GlcNAc(b1-4)GlcNAc
# How it was run: as §1
# [7] = target: Gal(b1-4)GlcNAc(b1-3)Gal(b1-3)GlcNAc
# How it was run: as §1
# [8] = target: Gal(b1-4)GlcNAc(b1-3)Gal(b1-4)Glc
# How it was run: as §1
# [9] = target: Gal(b1-4)GlcNAc(b1-3)Gal(b1-4)GlcNAc
# How it was run: as §1
# [10] = target: Gal(b1-4)GlcNAc(b1-3)Gal(b1-4)GlcNAc(b1-3)Gal(b1-4)GlcNAc
# How it was run: as §1
# [11] = target: Gal(b1-4)GlcNAc(b1-3)Gal(b1-4)[Fuc(a1-3)GlcNAc(b1-6)]Gal(b1-4)Glc
# How it was run: as §1
# [12] = target: Gal(b1-4)GlcNAc(b1-3)Gal(b1-4)[Fuc(a1-3)]GlcNAc(b1-3)Gal(b1-4)[Fuc(a1-3)]GlcNAc
# How it was run: as §1
# [13] = target: Gal(b1-4)GlcNAc(b1-3)GalNAc
# How it was run: as §1
# [14] = target: Gal(b1-4)GlcNAc(b1-3)[Gal(b1-4)GlcNAc(b1-6)]Gal(b1-4)GlcNAc
# How it was run: as §1
# [15] = target: Gal(b1-4)GlcNAc(b1-3)[Gal(b1-4)GlcNAc(b1-6)]GalNAc
# How it was run: as §1
# [16] = target: Gal(b1-4)GlcNAc(b1-3)[GlcNAc(b1-6)]Gal(b1-4)GlcNAc
# How it was run: as §1
# [17] = target: Gal(b1-4)GlcNAc(b1-6)Gal(b1-4)GlcNAc
# How it was run: as §1
# [18] = target: Gal(b1-4)GlcNAc(b1-6)GalNAc
# How it was run: as §1
# [19] = target: Gal(b1-4)GlcNAc(b1-6)[Gal(b1-3)]GalNAc
# How it was run: as §1
# [20] = target: Gal(b1-4)GlcNAc6P
# How it was run: as §1
# [21] = target: Gal(b1-6)Gal
# How it was run: as §1
# [22] = target: Gal3S(b1-3)GalNAc
# How it was run: as §1
# [23] = target: Gal3S(b1-3)GlcNAc
# How it was run: as §1
# [24] = target: Gal3S(b1-3)[Fuc(a1-4)]GlcNAc
# How it was run: as §1
# [25] = target: Gal3S(b1-4)Glc
# How it was run: as §1
# [26] = target: Gal3S(b1-4)Glc6S
# How it was run: as §1
# [27] = target: Gal3S(b1-4)GlcNAc
# How it was run: as §1
# [28] = target: Gal3S(b1-4)GlcNAc6S
# How it was run: as §1
# [29] = target: Gal3S(b1-4)[Fuc(a1-3)]Glc
# How it was run: as §1
# [30] = target: Gal3S(b1-4)[Fuc(a1-3)]Glc6S
# How it was run: as §1
binder,measurement,setting,value
B1,glycan array binding signal (z-score),[1],-0.409
same,glycan array binding signal (z-score),[2],-0.334
same,glycan array binding signal (z-score),[3],-0.406
same,glycan array binding signal (z-score),[4],-0.37
same,glycan array binding signal (z-score),[5],-0.315
same,glycan array binding signal (z-score),[6],-0.353
same,glycan array binding signal (z-score),[7],-0.415
same,glycan array binding signal (z-score),[8],-0.429
same,glycan array binding signal (z-score),[9],-0.365
same,glycan array binding signal (z-score),[10],0.155
same,glycan array binding signal (z-score),[11],-0.176
same,glycan array binding signal (z-score),[12],-0.387
same,glycan array binding signal (z-score),[13],-0.3
same,glycan array binding signal (z-score),[14],-0.313
same,glycan array binding signal (z-score),[15],-0.294
same,glycan array binding signal (z-score),[16],-0.284
same,glycan array binding signal (z-score),[17],-0.397
same,glycan array binding signal (z-score),[18],-0.328
same,glycan array binding signal (z-score),[19],-0.324
same,glycan array binding signal (z-score),[20],-0.178
same,glycan array binding signal (z-score),[21],-0.314
same,glycan array binding signal (z-score),[22],-0.399
same,glycan array binding signal (z-score),[23],-0.309
same,glycan array binding signal (z-score),[24],-0.119
same,glycan array binding signal (z-score),[25],-0.257
same,glycan array binding signal (z-score),[26],0.728
same,glycan array binding signal (z-score),[27],-0.163
same,glycan array binding signal (z-score),[28],6.34
same,glycan array binding signal (z-score),[29],-0.032
same,glycan array binding signal (z-score),[30],-0.227
